We go through 25 compounds from PubChem BioAssay AID463173 (ICCB-Longwood Screening Facility, Harvard Medical School, 2010).

The structures appear in SMILES notation. About 1,700 (3.3%) of roughly 52,000 compounds were called active. Rule as the data show it: active = survival mostly below about 52% (no sharp cut-off); inactive = mostly above about 56%. Some of the results follow.

For this assay, the system named is Wild type. Description: growth inhibition of S. aureus wild type versus tarO mutant, primary screen, teichoic acid synthesis inhibitors, RN4220, OD600 (AID 463173). The note with it: S. aureus RN4220 wild type/DeltatarO growth, OD600, 18 h, active compounds read low, screened at 18.75 µg/mL (by protocol).
Consider `O=C(CNS(=O)(=O)c1ccccc1)N1CCCC1`, for which the survival is inactive: 102%. For `CC(C)Oc1ccc(CNS(=O)(=O)c2ccc3c(c2)C(C)(C)C(=O)N3C)cc1`, the survival was inactive: 82%.

In the case of `Cc1ccc(NC(=O)CSc2ncc(S(=O)(=O)c3ccc(C(C)C)cc3)c(=O)[nH]2)cc1C`, the survival was inactive: 120%. With `CCOc1ccccc1CN(CCc1ccc2c(c1)OCO2)Cc1ccccn1` the figure was inactive: 104%. On to `Cc1ccc(CNC(=O)c2nc(SCc3ccc(F)cc3)ncc2Cl)cc1`, for which the survival is inactive: 91%. With `COc1ccc(NC(=O)Cn2c(=O)n(-c3ccccc3)c(=O)c3c4c(sc32)CCCC4)c(OC)c1` the figure was inactive: 87%; with `CCOC(=O)/C(C#N)=C\C1=C(N2CCCC2)CC(C)(C)OC1`, inactive: 97%; with `Cc1cc(C)n2c(Nc3ccc4c(c3)OCCO4)c(-c3ccc(Cl)cc3)nc2n1`, inactive: 143%. As for `COc1ccc(S(=O)(=O)n2nc(C)c(S(=O)(=O)N3CCCCCC3)c2C)cc1`, the figure is inactive: 60%; as for `Cc1ccccc1NC(=O)NCCCN1CCN(c2ccccc2F)CC1`, inactive: 134%; as for `COC(=O)c1cc(S(=O)(=O)N2CCN(c3ccc(OC)cc3)CC2)c[nH]1`, inactive: 85%. With `Cc1cc(N2CCCCC2)nc2ccc(NC(=O)/C=C/c3ccc(OC(C)C)cc3)cc12` the figure was inactive: 74%; with `CCCCOc1ccc(C2=NC(c3cccs3)=Nc3ccc(CC)cc3N2)cc1`, inactive: 81%; with `CC(C)CC(=O)Nc1nc2nc(-c3ccccc3)cc(=O)n2[nH]1`, inactive: 89%. Regarding `COC(=O)c1c(Oc2ccc(OC)cc2)nnc(-c2ccccc2)c1-c1ccccc1`, the survival was inactive: 118%. `CCCN1CCN(C(=O)Cn2c(-c3cccs3)cc3ccccc32)CC1`: the survival was inactive: 74%. For `Cc1ccc(NC(=O)c2cnc(N3CCCCC3)c3ccccc23)c(C)c1`, the survival was inactive: 73%.

As to `COCCCNC(=O)C1CCN(C(=O)c2cnn(-c3ccccc3)c2-n2cccc2)CC1`, the survival was inactive: 84%. As for `Cc1cccc(NC(=O)N2CCN(C(=O)c3nsc4ccccc34)CC2)c1C`, the figure is inactive: 72%. For the compound `Cc1ccc(N2C(=O)NC(NS(=O)(=O)c3ccccc3)(C(F)(F)F)C2=O)cc1C` (stereo not given), the survival was inactive: 69%. As for `COc1ccc(CNC(=O)CCCn2nc(C)c3sc4ccccc4c3c2=O)cc1OC`, the figure is inactive: 84%; as for `CCOc1ccccc1CNC(=O)c1ccc(N2Cc3ccccc3Oc3ncccc32)s1`, inactive: 84%; as for `Cc1cc(C)c(C#N)c(SCc2cccnc2)n1`, inactive: 100%. Consider `Cc1ccc2c(CC(=O)Nc3ccc(S(=O)(=O)N4CCCCC4C)cc3)coc2c1` (stereo not given), for which the survival is inactive: 79%. As for `Cc1ccc(CNC(=O)c2cccn2-c2nnc(N3CCCC3)s2)cc1`, the figure is inactive: 79%.
